Experimental data from PubChem BioAssay (Tox21).
Where “and” joins values, the source holds several entries; their conditions need not be identical. Equal values may be shown once. This list was built around the results that the source calls inconclusive (neither active nor inactive); the mix of calls is not that of the screen. No potency is given beside an inconclusive call; the fits are too rough. Calls of active or inactive are those of the source. The call rests on the fitted dose curve; in most records, active means well fitted cell-killing curve with a large enough effect in the repeat runs; inconclusive means weak or mixed curves, or effect the other way; inactive means flat fitted curve, though single readings scatter.

Experiment: qHTS RealTime-Glo MT Cell Viability Assay in HEK293 cells - 40 hour (AID 1224874); further: nearly all actives have a fitted effect of over 50% in size
Conditions: RealTime-Glo luminescence; max response: hits give low values
Excerpt: U.S. Tox21 Program National Center for Advancing Translational Sciences [NCATS] NIH Chemical Genomics Center [NCGC] U.S. Environmental Protection Agency [EPA] National Institutes of Environmental Health Sciences [NIEHS] National Toxicology Program [NTP] U.S. Food and Drug Administration [FDA] Tox21 Assay Overview: Measure of cell viability is critical in the cell-base assay. Analysis of cell viability is necessary for the characterization of cell responses to cytotoxic drugs and environmental stress. A RealTime-Glo MT Cell Viability Assay to monitor cell viability in real time of continues cell culture during 40 hours of compound treatment was used to screen Tox21 10K library compounds in Hek293 cells. The RealTime-Glo MT Cell Viability Assay is a nonlytic, homogeneous, bioluminescent method to measure cell viability in real time using a simple, plate-based method. The assay involves adding NanoLuc luciferase and a cell-permeant prosubstrate to cells in culture. Viable cells reduce the proprietary prosubstrate to generate a substrate for NanoLuc luciferase. This substrate diffuses from cells into the surrounding culture medium, where it is rapidly used by the NanoLuc Enzyme to produce a luminescent signal. The signal correlates with the number of viable cells, making the assay well suited for cytotoxicity studies.
Tox21 Assay Protocol Summary: The mixture of Hek293 cell suspension and reagents were dispensed at 600cells/6 ul/well in 1536-well tissue culture treated black solid bottom plates using a Multidrop dispenser. After the assay plates were incubated at a 37 C/5% CO2 incubator for 5 hours, 23 nL of compounds dissolved in DMSO, positive and negative controls was transferred to the assay plate by a pintool work station. The plates were incubated at 37 C for 40 hours. The luminescence intensity were measured at 0h, 8h, 16h, 24h, 32h and 40h time points using ViewLux plate reader during compound treatment.
On the % scale 0 is the no-effect control and ±100 the full control effect; potency means the concentration at half of the fitted maximal effect; tags describe the fitted curve by direction and shape.

Which max response does the source give for CCC(CO)(CO)COCC(CC)(CO)CO here?
Its max response is inactive: -1.05%.

For Nc1cc(N)cc(C(=O)O)c1, which max response is on record?
The max response was inactive: 8.18%.

With CC1CN(c2cc3c(cc2F)c(=O)c(C(=O)O)cn3-c2ccc(F)cc2F)CCN1 (stereo not given) as the compound, how does the max response read?
Its max response is inactive: 2.82%.

For C1CCCCCCCCCCC1, which Potency is on record?
Its Potency is inconclusive [cytotoxic, single point].

For CCCCc1nc(Cl)c(CO)n1Cc1ccc(-c2ccccc2-c2nn[nH]n2)cc1, which max response is on record?
Its max response is inactive: -16.9%.

With CCCCCCCCCOCC1CO1 (stereo not given) as the compound, how does the Potency read?
Its Potency is inconclusive [cytotoxic, partial curve, poor fit].

Which max response does the source give for Clc1nc2ccccc2s1 here?
The max response was inactive: -10.6%.

With CCOc1ccc2nc(N)sc2c1 as the compound, how does the max response read?
Its max response is inactive: -4.71%.

Which Potency does the source give for CCN(CC)S(=O)(=O)c1ccc(C(=O)O)cc1 here?
Its Potency is inconclusive [rising, single point].

For CCCCc1ccc2c(n1)[C@@H](c1ccc(OC)cc1C[C@H](C)C(=O)O)[C@H](C(=O)O)[C@H]2c1ccc2c(c1)OCO2, which max response is on record?
The max response was inactive: 0.185%.

For C=C(C)C(=O)OCCOP(=O)(O)OCCOC(=O)C(=C)C, which max response is on record?
Its max response is inactive: -2.48%.

With CC1=C(C/C=C(\C)CCC[C@H](C)CCC[C@H](C)CCCC(C)C)C(=O)c2ccccc2C1=O as the compound, how does the Potency read?
The Potency was inconclusive [rising, partial curve].

For O=S(=O)(O)c1cc(O)c2ccc(Nc3ccccc3)cc2c1, which max response is on record?
Its max response is inactive: 11.9%.

For O=C(O)c1ccc[n+]([O-])c1, which max response is on record?
Its max response is inactive: 8.34%.

Which Potency does the source give for O=C(c1ccccc1)c1cccc(O)c1 here?
Its Potency is inconclusive [cytotoxic, partial curve].

For CC(C)OC(=O)C(C(=O)OC(C)C)=C1SC=CS1, which Potency is on record?
The Potency was inconclusive [cytotoxic, partial curve].

For CO/N=C(/C(=O)N[C@@H]1C(=O)N2C(C(=O)[O-])=C(C[n+]3ccn4ncccc43)CS[C@H]12)c1nsc(N)n1, which max response is on record?
The max response was inactive: 6.83%.

With CN1CCN(c2cc3c(nn2)Oc2ccccc2N3C)CC1 as the compound, how does the max response read?
The max response was inactive: -0.461%.

For [O]=[Mo](=[O])=[O], which Potency is on record?
Its Potency is inconclusive [cytotoxic, single point].

For CCOc1ccccc1O, which max response is on record?
The max response was inactive: -54.1%.

For C[C@]12CC[C@@H]3c4ccc(O)cc4CC[C@H]3[C@@H]1C[C@@H](O)[C@@H]2O, which Potency is on record?
The Potency was inconclusive [cytotoxic, single point].

For O=C1OC(=O)c2c(Cl)c(Cl)c(Cl)c(Cl)c21, which Potency is on record?
The Potency was inconclusive [cytotoxic, partial curve].

For Cc1ccc(C)c(S(=O)(=O)O)c1, which max response is on record?
Its max response is inactive: 6.87% and inactive: -2.89%.

For COc1ccc(C#N)cc1, which max response is on record?
The max response was inactive: -13.1%.

For C/C=C/C=C/CO, which Potency is on record?
The Potency was inconclusive [cytotoxic, full curve].

With O=C(O[C@@H](C(=O)O)[C@@H](OC(=O)c1ccccc1)C(=O)O)c1ccccc1 as the compound, how does the Potency read?
The Potency was inconclusive [rising, partial curve, poor fit].

For CC(=O)O[C@@]12CO[C@@H]1C[C@H](O)[C@@]1(C)C(=O)[C@H](O)C3=C(C)[C@@H](OC(=O)[C@H](O)[C@@H](NC(=O)OC(C)(C)C)c4ccccc4)C[C@@](O)([C@@H](OC(=O)c4ccccc4)[C@H]21)C3(C)C, which Potency is on record?
The Potency was active: 0.0338 µM.

With COc1ccccc1OCC(O)CO (stereo not given) as the compound, how does the max response read?
Its max response is inactive: 1.4% and inactive: 1.84%.

With Cc1nc(C2CCCCC2)c(-c2ccc(S(N)(=O)=O)c(F)c2)o1 as the compound, how does the Potency read?
The Potency was inconclusive [cytotoxic, single point].

Which Potency does the source give for COc1ccc(S(=O)(=O)N2c3ccc(Cl)cc3[C@@](O)(c3ccccc3Cl)[C@H]2C(=O)N2CCC[C@@H]2C(N)=O)cc1OC here?
The Potency was inconclusive [cytotoxic, partial curve].

Which max response does the source give for COc1ccc([C@@H]2CC(=O)c3c(O)cc(O[C@@H]4O[C@H](CO[C@@H]5O[C@@H](C)[C@H](O)[C@@H](O)[C@H]5O)[C@@H](O)[C@H](O)[C@H]4O)cc3O2)cc1OC here?
Its max response is inactive: 14.9% and inactive: 7.9%.

For Cc1cc(NC(=O)C2=C(O)c3ccccc3S(=O)(=O)N2C)no1, which max response is on record?
Its max response is inactive: 4.93%.

For C[C@H](CCC(=O)NCC(=O)O)[C@H]1CC[C@H]2[C@@H]3[C@H](O)C[C@@H]4C[C@H](O)CC[C@]4(C)[C@H]3C[C@H](O)[C@]12C, which Potency is on record?
Its Potency is active: 9.49 µM.

Which max response does the source give for O=[N+]([O-])c1cccc(Cl)c1Cl here?
The max response was inactive: -16.4%.

For CN=C(NC#N)NCCSCc1csc(N=C(N)N)n1, which max response is on record?
Its max response is inactive: 1.73%.

With C1CCC2(CCCCO2)OC1 as the compound, how does the max response read?
The max response was inactive: -6.53%.

Which Potency does the source give for O=C1c2ccccc2C(=O)c2c(Cl)cccc21 here?
The Potency was inconclusive [rising, single point].

Which Potency does the source give for CC(C)C[C@@H]1[C@H](c2ccccc2)OC(=O)N1CCCN1CCCCCC1 here?
Its Potency is inconclusive [cytotoxic, partial curve].

With CNCCO as the compound, how does the Potency read?
The Potency was inconclusive [rising, partial curve, poor fit].

Which Potency does the source give for CCCN(C1CCN(C(=O)C2CCNCC2)CC1)[C@@H]1CCc2ccc(OC)cc2C1 here?
Its Potency is inconclusive [cytotoxic, single point].
